# According to the supplement of paper PMC8728848:
# The list shows a part of the results.
# B1: TbCVNHOb (Tuber borchii) (protein)
# chain: MSFYASSEDVRTIEEGGRTWLVGRARRADGSWQDIKLDLDNIIGNRDGHLTWGEQNFTQSASDIRFNFEGGSNVPVLRAKLRNAAGGEQESDLNLGERLTNNNGDLVFN
# What was measured:
# Experiment in all cases: glycan array binding signal (z-score within array); higher = stronger binding
# Conditions in all cases: glycan notation: IUPAC condensed, linker removed
# [1] = target: GalNAc(b1-3)Gal(a1-4)Gal(b1-4)GlcNAc
# How it was run: (§1)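 Negative Z-scores can be read as non-binding. The Z-score is calculated within each array and then averaged across arrays of one protein sequence at different concentrations or buffers and across linkers. Arrays, 3228 in all, were curated from the Consortium for Functional Glycomics database and kept only where the protein sequence was available.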
# GalNAc(b1-3)GalNAc = target: GalNAc(b1-3)GalNAc
# How it was run: as §1
# GalNAc(b1-4)GlcNAc = target: GalNAc(b1-4)GlcNAc
# How it was run: as §1
# Glc(a1-4)Glc = target: Glc(a1-4)Glc
# How it was run: as §1
# Glc(a1-6)Glc(a1-6)Glc = target: Glc(a1-6)Glc(a1-6)Glc
# How it was run: as §1
# Glc(b1-4)Glc = target: Glc(b1-4)Glc
# How it was run: as §1
# Glc(b1-6)Glc = target: Glc(b1-6)Glc
# How it was run: as §1
# GlcA(b1-3)Gal = target: GlcA(b1-3)Gal
# How it was run: as §1
# GlcA(b1-3)GlcNAc = target: GlcA(b1-3)GlcNAc
# How it was run: as §1
# GlcA(b1-6)Gal = target: GlcA(b1-6)Gal
# How it was run: as §1
# [2] = target: GlcNAc(a1-3)Gal(b1-4)GlcNAc
# How it was run: as §1
# [3] = target: GlcNAc(a1-6)Gal(b1-4)GlcNAc
# How it was run: as §1
# [4] = target: GlcNAc(b1-2)Gal(b1-3)GalNAc
# How it was run: as §1
# [5] = target: GlcNAc(b1-2)Man(a1-3)[GlcNAc(b1-2)Man(a1-6)]Man(b1-4)GlcNAc(b1-4)GlcNAc
# How it was run: as §1
# GlcNAc(b1-3)Gal = target: GlcNAc(b1-3)Gal
# How it was run: as §1
# [6] = target: GlcNAc(b1-3)Gal(b1-3)GalNAc
# How it was run: as §1
# GlcNAc(b1-3)Gal(b1-4)Glc = target: GlcNAc(b1-3)Gal(b1-4)Glc
# How it was run: as §1
# [7] = target: GlcNAc(b1-3)Gal(b1-4)GlcNAc
# How it was run: as §1
# [8] = target: GlcNAc(b1-3)Gal(b1-4)GlcNAc(b1-3)Gal(b1-4)GlcNAc
# How it was run: as §1
# GlcNAc(b1-3)GalNAc = target: GlcNAc(b1-3)GalNAc
# How it was run: as §1
# GlcNAc(b1-3)Man = target: GlcNAc(b1-3)Man
# How it was run: as §1
# [9] = target: GlcNAc(b1-3)[GlcNAc(b1-4)][GlcNAc(b1-6)]GlcNAc
# How it was run: as §1
# [10] = target: GlcNAc(b1-3)[GlcNAc(b1-6)]Gal(b1-4)GlcNAc
# How it was run: as §1
# [11] = target: GlcNAc(b1-3)[GlcNAc(b1-6)]GalNAc
# How it was run: as §1
# [12] = target: GlcNAc(b1-4)Gal(b1-4)GlcNAc
# How it was run: as §1
# GlcNAc(b1-4)GlcNAc = target: GlcNAc(b1-4)GlcNAc
# How it was run: as §1
# [13] = target: GlcNAc(b1-4)GlcNAc(b1-4)GlcNAc
# How it was run: as §1
# [14] = target: GlcNAc(b1-4)GlcNAc(b1-4)GlcNAc(b1-4)GlcNAc(b1-4)GlcNAc
# How it was run: as §1
# [15] = target: GlcNAc(b1-4)GlcNAc(b1-4)GlcNAc(b1-4)GlcNAc(b1-4)GlcNAc(b1-4)GlcNAc
# How it was run: as §1
# [16] = target: GlcNAc(b1-4)[GlcNAc(b1-6)]GalNAc
# How it was run: as §1
# [17] = target: GlcNAc(b1-6)Gal(b1-4)GlcNAc
# How it was run: as §1
# GlcNAc(b1-6)GalNAc = target: GlcNAc(b1-6)GalNAc
# How it was run: as §1
# GlcNAc3Prop(b1-4)GlcNAc = target: GlcNAc3Prop(b1-4)GlcNAc
# How it was run: as §1
# Kdn(a2-3)Gal(b1-3)GlcNAc = target: Kdn(a2-3)Gal(b1-3)GlcNAc
# How it was run: as §1
# Kdn(a2-3)Gal(b1-4)GlcNAc = target: Kdn(a2-3)Gal(b1-4)GlcNAc
# How it was run: as §1
# [18] = target: Man(a1-2)Man(a1-2)Man(a1-3)Man
# How it was run: as §1
# [19] = target: Man(a1-2)Man(a1-2)Man(a1-6)[Man(a1-3)]Man
# How it was run: as §1
# Man(a1-2)Man(a1-3)Man = target: Man(a1-2)Man(a1-3)Man
# How it was run: as §1
# [20] = target: Man(a1-2)Man(a1-3)[Man(a1-2)Man(a1-6)]Man
# How it was run: as §1
# [21] = target: Man(a1-2)Man(a1-3)[Man(a1-2)Man(a1-6)]Man(a1-6)[Man(a1-2)Man(a1-2)Man(a1-3)]Man
# How it was run: as §1
# [22] = target: Man(a1-2)Man(a1-3)[Man(a1-2)Man(a1-6)]Man(a1-6)[Man(a1-2)Man(a1-2)Man(a1-3)]Man(b1-4)GlcNAc(b1-4)GlcNAc
# How it was run: as §1
# [23] = target: Man(a1-2)Man(a1-3)[Man(a1-2)Man(a1-6)]Man(a1-6)[Man(a1-3)[Man(a1-6)]Man(a1-6)]Man(b1-4)GlcNAc(b1-4)GlcNAc
# How it was run: as §1
# [24] = target: Man(a1-2)Man(a1-3)[Man(a1-6)]Man(a1-6)[Man(a1-2)Man(a1-3)]Man(b1-4)GlcNAc(b1-4)GlcNAc
# How it was run: as §1
# [25] = target: Man(a1-2)Man(a1-6)[Man(a1-3)]Man(a1-6)[Man(a1-2)Man(a1-2)Man(a1-3)]Man
# How it was run: as §1
# [26] = target: Man(a1-2)Man(a1-6)[Man(a1-3)]Man(a1-6)[Man(a1-2)Man(a1-2)Man(a1-3)]Man(b1-4)GlcNAc(b1-4)GlcNAc
# How it was run: as §1
binder,measurement,setting,value
B1,glycan array binding signal (z-score),[1],0.184
same,glycan array binding signal (z-score),GalNAc(b1-3)GalNAc,0.008
same,glycan array binding signal (z-score),GalNAc(b1-4)GlcNAc,0.024
same,glycan array binding signal (z-score),Glc(a1-4)Glc,-0.033
same,glycan array binding signal (z-score),Glc(a1-6)Glc(a1-6)Glc,0.006
same,glycan array binding signal (z-score),Glc(b1-4)Glc,-0.189
same,glycan array binding signal (z-score),Glc(b1-6)Glc,-0.193
same,glycan array binding signal (z-score),GlcA(b1-3)Gal,0
same,glycan array binding signal (z-score),GlcA(b1-3)GlcNAc,0.207
same,glycan array binding signal (z-score),GlcA(b1-6)Gal,-0.242
same,glycan array binding signal (z-score),[2],-0.104
same,glycan array binding signal (z-score),[3],-0.136
same,glycan array binding signal (z-score),[4],0.017
same,glycan array binding signal (z-score),[5],-0.107
same,glycan array binding signal (z-score),GlcNAc(b1-3)Gal,-0.192
same,glycan array binding signal (z-score),[6],0.011
same,glycan array binding signal (z-score),GlcNAc(b1-3)Gal(b1-4)Glc,-0.161
same,glycan array binding signal (z-score),[7],-0.21
same,glycan array binding signal (z-score),[8],-0.144
same,glycan array binding signal (z-score),GlcNAc(b1-3)GalNAc,-0.039
same,glycan array binding signal (z-score),GlcNAc(b1-3)Man,-0.103
same,glycan array binding signal (z-score),[9],0.048
same,glycan array binding signal (z-score),[10],0.039
same,glycan array binding signal (z-score),[11],-0.084
same,glycan array binding signal (z-score),[12],-0.099
same,glycan array binding signal (z-score),GlcNAc(b1-4)GlcNAc,-0.149
same,glycan array binding signal (z-score),[13],-0.075
same,glycan array binding signal (z-score),[14],-0.323
same,glycan array binding signal (z-score),[15],-0.297
same,glycan array binding signal (z-score),[16],-0.146
same,glycan array binding signal (z-score),[17],0.009
same,glycan array binding signal (z-score),GlcNAc(b1-6)GalNAc,-0.348
same,glycan array binding signal (z-score),GlcNAc3Prop(b1-4)GlcNAc,0.314
same,glycan array binding signal (z-score),Kdn(a2-3)Gal(b1-3)GlcNAc,-0.178
same,glycan array binding signal (z-score),Kdn(a2-3)Gal(b1-4)GlcNAc,-0.282
same,glycan array binding signal (z-score),[18],1.35
same,glycan array binding signal (z-score),[19],0.239
same,glycan array binding signal (z-score),Man(a1-2)Man(a1-3)Man,0.061
same,glycan array binding signal (z-score),[20],-0.144
same,glycan array binding signal (z-score),[21],-0.124
same,glycan array binding signal (z-score),[22],-0.166
same,glycan array binding signal (z-score),[23],0.161
same,glycan array binding signal (z-score),[24],0.106
same,glycan array binding signal (z-score),[25],-0.185
same,glycan array binding signal (z-score),[26],-0.2
